# Measurements from the supplement of paper PMC8728848.
# The list shows a part of the results.
# B1: DBA (Dolichos biflorus) (protein)
# chain: ANIQSFSFKNFNSPSFILQGDATVSSGKLQLTKVKENGFPLRFPSGRAFYSSPIQIYDKFTGAVASWATSFTVKISAPSKASFADGIAFALVPVGSEPRRNGGYLGVFDSDVYNNSAQTVAVEFDTLSNSGWDPSMKHIGIDVNSIKSIATVSWDLANGENAEILITYNAATSLLVVSLVHPSRRTSYILSERVDITNELPEYVGVGFSATTGLSEGYIETHDVLSWSFASRLPDDSTAEPLDLARYLVRNVL
# What was measured:
# Experiment in all cases: glycan array binding signal (z-score within array); higher = stronger binding
# Settings in all cases: glycan notation: IUPAC condensed, linker removed
# [1] = biological target: Gal(b1-4)GlcNAc(b1-2)[Gal(b1-4)GlcNAc(b1-4)]Man(a1-3)[Gal(b1-4)GlcNAc(b1-2)[Gal(b1-4)GlcNAc(b1-6)]Man(a1-6)]Man(b1-4)GlcNAc(b1-4)GlcNAc
# Procedure, shortened: (§1)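 The Consortium for Functional Glycomics database supplied 3228 glycan arrays, of which those lacking an available protein sequence were dropped. The binding signal, a within-array Z-score, was averaged across arrays of the same protein sequence and across linkers. Negative scores can be read as non-binding.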
# [2] = biological target: Gal(b1-4)GlcNAc(b1-2)[Gal(b1-4)GlcNAc(b1-4)]Man(a1-3)[GlcNAc(b1-4)][Gal(b1-4)GlcNAc(b1-2)Man(a1-6)]Man(b1-4)GlcNAc(b1-4)GlcNAc
# Procedure, shortened: as §1
# [3] = biological target: Gal(b1-4)GlcNAc(b1-2)[Gal(b1-4)GlcNAc(b1-4)]Man(a1-3)[GlcNAc(b1-4)][Gal(b1-4)GlcNAc(b1-2)[Gal(b1-4)GlcNAc(b1-6)]Man(a1-6)]Man(b1-4)GlcNAc(b1-4)GlcNAc
# Procedure, shortened: as §1
# [4] = biological target: Gal(b1-4)GlcNAc(b1-2)[Gal(b1-4)GlcNAc(b1-6)]Man(a1-6)[Gal(b1-4)GlcNAc(b1-2)Man(a1-3)]Man(b1-4)GlcNAc(b1-4)GlcNAc
# Procedure, shortened: as §1
# [5] = biological target: Gal(b1-4)GlcNAc(b1-2)[Gal(b1-4)GlcNAc(b1-6)]Man(a1-6)[Gal(b1-4)GlcNAc(b1-2)Man(a1-3)]Man(b1-4)GlcNAc(b1-4)[Fuc(a1-6)]GlcNAc
# Procedure, shortened: as §1
# [6] = biological target: Gal(b1-4)GlcNAc(b1-2)[Gal(b1-4)GlcNAc(b1-6)]Man(a1-6)[GlcNAc(b1-4)][Gal(b1-4)GlcNAc(b1-2)Man(a1-3)]Man(b1-4)GlcNAc(b1-4)GlcNAc
# Procedure, shortened: as §1
# [7] = biological target: Gal(b1-4)GlcNAc(b1-2)[Gal(b1-4)GlcNAc(b1-6)]Man(a1-6)[GlcNAc(b1-4)][Gal(b1-4)GlcNAc(b1-2)[Gal(b1-4)GlcNAc(b1-4)]Man(a1-3)]Man(b1-4)GlcNAc(b1-4)[Fuc(a1-6)]GlcNAc
# Procedure, shortened: as §1
# [8] = biological target: Gal(b1-4)GlcNAc(b1-3)Gal(b1-3)GalNAc
# Procedure, shortened: as §1
# [9] = biological target: Gal(b1-4)GlcNAc(b1-3)Gal(b1-3)GlcNAc
# Procedure, shortened: as §1
# [10] = biological target: Gal(b1-4)GlcNAc(b1-3)Gal(b1-4)Glc
# Procedure, shortened: as §1
# [11] = biological target: Gal(b1-4)GlcNAc(b1-3)Gal(b1-4)GlcNAc
# Procedure, shortened: as §1
# [12] = biological target: Gal(b1-4)GlcNAc(b1-3)Gal(b1-4)GlcNAc(b1-2)Man(a1-3)[Gal(b1-4)GlcNAc(b1-3)Gal(b1-4)GlcNAc(b1-2)Man(a1-6)]Man(b1-4)GlcNAc(b1-4)GlcNAc
# Procedure, shortened: as §1
# [13] = biological target: Gal(b1-4)GlcNAc(b1-3)Gal(b1-4)GlcNAc(b1-2)Man(a1-3)[Gal(b1-4)GlcNAc(b1-3)Gal(b1-4)GlcNAc(b1-2)Man(a1-6)]Man(b1-4)GlcNAc(b1-4)[Fuc(a1-6)]GlcNAc
# Procedure, shortened: as §1
# [14] = biological target: Gal(b1-4)GlcNAc(b1-3)Gal(b1-4)GlcNAc(b1-2)[Gal(b1-4)GlcNAc(b1-3)Gal(b1-4)GlcNAc(b1-6)]Man(a1-6)[Gal(b1-4)GlcNAc(b1-3)Gal(b1-4)GlcNAc(b1-2)Man(a1-3)]Man(b1-4)GlcNAc(b1-4)GlcNAc
# Procedure, shortened: as §1
# [15] = biological target: Gal(b1-4)GlcNAc(b1-3)Gal(b1-4)GlcNAc(b1-2)[Gal(b1-4)GlcNAc(b1-3)Gal(b1-4)GlcNAc(b1-6)]Man(a1-6)[Gal(b1-4)GlcNAc(b1-3)Gal(b1-4)GlcNAc(b1-2)Man(a1-3)]Man(b1-4)GlcNAc(b1-4)[Fuc(a1-6)]GlcNAc
# Procedure, shortened: as §1
# [16] = biological target: Gal(b1-4)GlcNAc(b1-3)Gal(b1-4)GlcNAc(b1-3)Gal(b1-4)GlcNAc
# Procedure, shortened: as §1
# [17] = biological target: Gal(b1-4)GlcNAc(b1-3)Gal(b1-4)GlcNAc(b1-3)Gal(b1-4)GlcNAc(b1-2)Man(a1-3)[Gal(b1-4)GlcNAc(b1-3)Gal(b1-4)GlcNAc(b1-3)Gal(b1-4)GlcNAc(b1-2)Man(a1-6)]Man(b1-4)GlcNAc(b1-4)GlcNAc
# Procedure, shortened: as §1
# [18] = biological target: Gal(b1-4)GlcNAc(b1-3)Gal(b1-4)GlcNAc(b1-3)Gal(b1-4)GlcNAc(b1-2)Man(a1-3)[Gal(b1-4)GlcNAc(b1-3)Gal(b1-4)GlcNAc(b1-3)Gal(b1-4)GlcNAc(b1-2)Man(a1-6)]Man(b1-4)GlcNAc(b1-4)[Fuc(a1-6)]GlcNAc
# Procedure, shortened: as §1
# [19] = biological target: Gal(b1-4)GlcNAc(b1-3)Gal(b1-4)GlcNAc(b1-3)Gal(b1-4)GlcNAc(b1-2)[Gal(b1-4)GlcNAc(b1-3)Gal(b1-4)GlcNAc(b1-3)Gal(b1-4)GlcNAc(b1-6)]Man(a1-6)[Gal(b1-4)GlcNAc(b1-3)Gal(b1-4)GlcNAc(b1-3)Gal(b1-4)GlcNAc(b1-2)Man(a1-3)]Man(b1-4)GlcNAc(b1-4)[Fuc(a1-6)]GlcNAc
# Procedure, shortened: as §1
binder,measurement,setting,value
B1,glycan array binding signal (z-score),[1],-0.149
same,glycan array binding signal (z-score),[2],-0.103
same,glycan array binding signal (z-score),[3],-0.084
same,glycan array binding signal (z-score),[4],-0.105
same,glycan array binding signal (z-score),[5],-0.096
same,glycan array binding signal (z-score),[6],-0.166
same,glycan array binding signal (z-score),[7],-0.126
same,glycan array binding signal (z-score),[8],-0.086
same,glycan array binding signal (z-score),[9],-0.125
same,glycan array binding signal (z-score),[10],-0.131
same,glycan array binding signal (z-score),[11],-0.124
same,glycan array binding signal (z-score),[12],0.018
same,glycan array binding signal (z-score),[13],0.172
same,glycan array binding signal (z-score),[14],-0.006
same,glycan array binding signal (z-score),[15],0.145
same,glycan array binding signal (z-score),[16],-0.161
same,glycan array binding signal (z-score),[17],0.274
same,glycan array binding signal (z-score),[18],0.124
same,glycan array binding signal (z-score),[19],0.203
